Reference: PubChem BioAssay AID651820 (National Center for Advancing Translational Sciences (NCATS), 2012)
Among all 340,000 compounds or so, about 12,000 (3.5%) were called active. Inconclusive results, whose numbers are uncertain, are shown with a selection of clear calls. Calls follow the shape of the dose curve; as a rule, active = well fitted inhibition curve with a large enough effect; inconclusive = small, poorly fitted or top-dose-only effect, or another doubt; inactive = no such curve, though single readings can be large or run the other way. Potencies of inconclusive entries are left out as doubtful fits.
Potency is read from the fitted curve at half-maximal effect; tags tell the direction and shape of the fitted curve.

Test: qHTS Assay for Inhibitors of Hepatitis C Virus (HCV)
Conditions: Huh7.5.1 HCVcc-Cre (HCVcc is cell-culture hepatitis C virus) infection, luciferase reporter, 44 h; series mostly up to 41.8 µM
How it was run: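 Cells (1,000/well) were plated 4 h before compound, then infected with HCVcc-Cre virus (~0.5 moi). After 44 h further culture, infection was read as luciferase luminescence following a 15 min substrate incubation at room temperature.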
With `CCN1C(=O)C(CC(=O)N2CCN(C(c3ccccc3)c3ccccc3)CC2)N(CC)C1=O` (configuration not stated) the Potency was “inactive”. For `CN(CC(=O)NCc1ccc(Cl)cc1)S(=O)(=O)c1cccc2nsnc12`, the Potency was “inactive”. With `CC(C)c1ccc(OCc2nc(-c3ccccn3)no2)c(Br)c1` the Potency was active: 12.6 µM. For `Cc1ccc(SCC(=O)OCC(=O)N(C)CC(=O)Nc2ccccc2Cl)cc1C`, the Potency was “inactive”. With `Cc1cccc(C(=O)Nc2cc(OCc3cccc(F)c3)c(Cl)cc2Cl)c1` the Potency was “inactive”. With `CCCn1c(SCC(=O)C(C)(C)C)nc2ccccc21` the Potency was “inactive”. For `CC(NC(=O)c1ccc(CS(C)(=O)=O)cc1)c1cccc2ccccc12` (configuration not stated), the Potency was inconclusive [inhibitor, full curve]. For `COc1ccccc1CNc1nc2ccccc2n1CCN1CCCCC1`, the Potency was inconclusive [inhibitor, single point]. For `CCOC(=O)c1c(C)[nH]c(C(=O)CSc2nnc(-c3ccncc3)n2CC)c1C`, the Potency was inconclusive [inhibitor, partial curve]. In the case of `Cc1ccc(-c2csc(NC(=O)C[n+]3cc(-c4ccc(C)cc4)n4c3CCC4)n2)cc1`, the Potency is reported as active: 3.55 µM. In the case of `COc1ccc(N2CCn3c2nc2c3c(=O)n(CCCc3ccccc3)c(=O)n2C)c(OC)c1`, the Potency is reported as active: 14.1 µM. For `c1ccc(-c2cc3c(-n4cccc4)ncnc3o2)cc1`, the Potency was inconclusive [inhibitor, single point]. In the case of `Cc1ccc(OCCCCN(C)Cc2ccccc2)c(Br)c1`, the Potency is reported as inconclusive [inhibitor, single point]. With `Fc1ccccc1NC(=S)NN(Cc1ccccc1)c1ccccc1` the Potency was “inactive”. In the case of `N#C/C(=N/Nc1ccc([N+](=O)[O-])cc1)C(=N)N1CCCCC1`, the Potency is reported as “inactive”. For `CCOc1ccc(OCC)c(-c2c(=O)n(OCc3ccc(Cl)cc3)c3ccccc3[n+]2[O-])c1`, the Potency was inconclusive [inhibitor, partial curve]. In the case of `COc1ccc(CCNC(=O)COc2ccc(S(=O)(=O)NC(C)C)cc2Cl)cc1OC`, the Potency is reported as inconclusive [inhibitor, full curve, poor fit]. With `N=c1cc(C2(O)CCCCC2)n2c(nc3ccccc32)s1` the Potency was “inactive”. For `Cc1ccn(-c2ccc(NC(=O)c3cccs3)cc2)n1`, the Potency was inconclusive [inhibitor, partial curve, poor fit]. For `Cc1ccc(C)c(S(=O)(=O)N2CCN(C(=O)c3ccc(OCc4c(C)noc4C)cc3)CC2)c1`, the Potency was inconclusive [inhibitor, partial curve, poor fit]. For `CCc1nnc(NC(=O)CN2C(=O)N(C)C3(CCCCC3)C2=O)s1`, the Potency was “inactive”. For `COc1ccc(N(CC(=O)Nc2ccccc2OC)S(=O)(=O)c2ccccc2)cc1Cl`, the Potency was inconclusive [inhibitor, partial curve]. With `O=C(/C(=C(\O)c1ccccc1)c1ncc[nH]1)c1ccccc1` the Potency was inconclusive [inhibitor, single point]. With `Cc1ccc(CCNC(=O)C2CCCN(c3ncnc4c3nc3n4CCCCC3)C2)cc1` (configuration not stated) the Potency was “inactive”. For `Cc1ccc(S(=O)(=O)CCC(=O)OCC(=O)N(C)c2ccccc2)cc1`, the Potency was “inactive”. In the case of `COC(=O)c1c(C)oc2ccc(N(C(=O)c3ccncc3)S(=O)(=O)c3ccc4ccccc4c3)cc12`, the Potency is reported as inconclusive [inhibitor, single point]. With `CCn1c2ccccc2c2cc(NC(=O)CNCC3CCCO3)ccc21` (configuration not stated) the Potency was inconclusive [inhibitor, single point]. With `O=C(Nc1ccc2c(c1)OCO2)N1CCCC1` the Potency was “inactive”. In the case of `CC(=O)c1c(COC(=O)c2cccc(C)c2)nc2ccccc2[n+]1[O-]`, the Potency is reported as inconclusive [inhibitor, partial curve]. For `CC(=O)/C(=C\N(C)C)Sc1ccc(Cl)cc1`, the Potency was “inactive”. For `O=[n+]1cc(-c2ccc(F)cc2)n([O-])c2c1CCC2`, the Potency was “inactive”. In the case of `Cc1ccccc1CNC(=O)Nc1cccs1`, the Potency is reported as inconclusive [inhibitor, single point]. For `CCc1nnc(NC(=O)CS(=O)(=O)Cc2ccccc2)s1`, the Potency was “inactive”. With `CCCCNC(=O)CSc1nc2cc3c(cc2c(=O)n1Cc1ccco1)OCO3` the Potency was inconclusive [inhibitor, full curve]. For `Cc1ccc(O)c(NC(=O)C2CC(c3cccc(Br)c3)=NO2)c1` (configuration not stated), the Potency was inconclusive [inhibitor, partial curve, poor fit]. For `Cc1c(NC(=O)Cn2[nH]c(=O)c3ccccc3c2=O)c(=O)n(-c2ccccc2)n1C`, the Potency was “inactive”. With `Cc1ccc2c(c1)C(c1ccc(N3CCOCC3)cc1)=NNC(c1cccs1)=N2` the Potency was inconclusive [inhibitor, single point]. For `CCCCCn1c(=N)c(S(=O)(=O)c2ccc(Br)cc2)cc2c(=O)n3cccc(C)c3nc21`, the Potency was inconclusive [inhibitor, full curve, poor fit]. In the case of `COC(=O)c1cc(C)sc1NC(=O)CSc1ncccn1`, the Potency is reported as “inactive”. In the case of `C=CCOc1ccccc1CNc1ccc2[nH]c(=O)[nH]c2c1`, the Potency is reported as inconclusive [inhibitor, single point]. For `Cc1ccc2occ(C(c3nnnn3Cc3ccccc3)N3CCOCC3)c(=O)c2c1` (configuration not stated), the Potency was inconclusive [inhibitor, single point]. For `CC(=O)c1ccc(-c2ccc(C(=O)N3CCCc4ccccc43)o2)cc1`, the Potency was inconclusive [inhibitor, single point]. For `Cc1cc(N=Nc2ccccc2C)ccc1N`, the Potency was active: 12.6 µM. With `COc1ccccc1/C=C/C(=O)OCCN1CCOCC1` the Potency was “inactive”. In the case of `CCN1C(=O)C(CC(=O)Nc2ccc(OC)cc2)N(CCCN2CCN(c3ccc(F)cc3)CC2)C1=S` (configuration not stated), the Potency is reported as inconclusive [inhibitor, single point]. With `CCC(=O)N1CCN(c2ccccc2NC(=O)c2ccc([N+](=O)[O-])o2)CC1` the Potency was inconclusive [inhibitor, single point]. For `Nc1nc(Nc2ccccc2F)sc1C(=O)c1ccccc1`, the Potency was inconclusive [inhibitor, single point].
